# Measurements from the supplement of paper PMC4604168 (melanoma cell lines).
# Some of the results follow. Many values rest on one well or one pass, so single values are uncertain.
# Test system: UACC257
# Assay: cell count relative to DMSO control; melanoma cells; higher = more viable cells
# Conditions: library dose: low library concentration; 72 h
# 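Further: cell number obtained by counting DAPI-stained nuclei in high-throughput microscope images with image analysis software, screen run in 1,536-well plates.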
row,Compound,cell count [%]
1,"C[C@]1(O)C[C@@H](c2nc(-c3ccc4ccc(-c5ccccc5)nc4c3)c3c(N)nccn32)C1 + CN(NC(=O)CC(=O)NN(C)C(=S)c1ccccc1)C(=S)c1ccccc1 [STA4783] (first compound 0.4 µM, partner dose 0.006 µM)",65.6
2,"C[C@]1(O)C[C@@H](c2nc(-c3ccc4ccc(-c5ccccc5)nc4c3)c3c(N)nccn32)C1 + NCC(=O)Nc1ccc(-n2nc(C(F)(F)F)cc2-c2ccc3c(ccc4ccccc43)c2)cc1 [OSU03012] (first compound 0.4 µM, partner dose 1 µM)",96.9
3,"CCN(CC)CCNC(=O)c1c(C)[nH]c(/C=C2\C(=O)Nc3ccc(F)cc32)c1C [sunitinib] + Oc1nc(-c2ccc(C(F)(F)F)cc2)nc2c1CSCC2 [XAV939] (first compound 0.4 µM, partner dose 2 µM)",80
4,"C[C@]1(O)C[C@@H](c2nc(-c3ccc4ccc(-c5ccccc5)nc4c3)c3c(N)nccn32)C1 + CC(C)CCN1c2nc(Nc3cc(F)c(O)c(F)c3)ncc2N(C)C(=O)C1C [BID1870] (first compound 0.4 µM, partner dose 0.2 µM)",92
5,"CCN(CC)CCNC(=O)c1c(C)[nH]c(/C=C2\C(=O)Nc3ccc(F)cc32)c1C [sunitinib] + COc1cc(N2CCC(N3CCN(C)CC3)CC2)ccc1Nc1ncc(Cl)c(Nc2ccccc2S(=O)(=O)C(C)C)n1 [NVP-TAE684] (first compound 0.4 µM, partner dose 0.08 µM)",72.8
6,"CCN(CC)CCNC(=O)c1c(C)[nH]c(/C=C2\C(=O)Nc3ccc(F)cc32)c1C [sunitinib] + CCc1ccc(CCOc2ccc(CC3SC(=O)NC3=O)cc2)nc1 [pioglitazone] (first compound 0.4 µM, partner dose 2 µM)",88.2
7,"C[C@]1(O)C[C@@H](c2nc(-c3ccc4ccc(-c5ccccc5)nc4c3)c3c(N)nccn32)C1 + NC(=O)Nc1cc(-c2cccc(F)c2)sc1C(=O)N[C@H]1CCCNC1 [AZD7762] (first compound 0.4 µM, partner dose 0.02 µM)",87.5
8,"C[C@]1(O)C[C@@H](c2nc(-c3ccc4ccc(-c5ccccc5)nc4c3)c3c(N)nccn32)C1 + c1cc(-c2cnn3cc(-c4ccc(OCCN5CCCCC5)cc4)cnc23)ccn1 [Dorsomorphin] (first compound 0.4 µM, partner dose 0.4 µM)",82.9
9,"COc1cc([C@@H]2c3cc4c(cc3[C@@H](O[C@@H]3O[C@@H]5CO[C@@H](C)O[C@H]5[C@H](O)[C@H]3O)[C@H]3COC(=O)[C@H]23)OCO4)cc(OC)c1O [etoposide] + COc1cc(N2CCC(N3CCN(C)CC3)CC2)ccc1Nc1ncc(Cl)c(Nc2ccccc2S(=O)(=O)C(C)C)n1 [NVP-TAE684] (first compound 0.02 µM, partner dose 0.08 µM)",91.2
10,"CCN(CC)CCNC(=O)c1c(C)[nH]c(/C=C2\C(=O)Nc3ccc(F)cc32)c1C [sunitinib] + CCCCCCCCCCCC1=C(O)C(=O)C=C(O)C1=O [Embelin] (first compound 0.4 µM, partner dose 1.2 µM)",96.5
11,"Cn1cnc2c(F)c(Nc3ccc(Br)cc3Cl)c(C(=O)NOCCO)cc21 [selumetinib] + CO[C@@H]1[C@H](N(C)C(=O)c2ccccc2)C[C@H]2O[C@]1(C)n1c3ccccc3c3c4c(c5c6ccccc6n2c5c31)C(=O)NC4 [Midostaurin] (first compound 0.015 µM, partner dose 0.08 µM)",98.3
12,"COc1cc([C@@H]2c3cc4c(cc3[C@@H](O[C@@H]3O[C@@H]5CO[C@@H](C)O[C@H]5[C@H](O)[C@H]3O)[C@H]3COC(=O)[C@H]23)OCO4)cc(OC)c1O [etoposide] + NC(=O)Nc1cc(-c2cccc(F)c2)sc1C(=O)N[C@H]1CCCNC1 [AZD7762] (first compound 0.02 µM, partner dose 0.02 µM)",97.3
13,"Cn1cnc2c(F)c(Nc3ccc(Br)cc3Cl)c(C(=O)NOCCO)cc21 [selumetinib] + Oc1nc(-c2ccc(C(F)(F)F)cc2)nc2c1CSCC2 [XAV939] (first compound 0.015 µM, partner dose 2 µM)",80.8
14,"CCN(CC)CCNC(=O)c1c(C)[nH]c(/C=C2\C(=O)Nc3ccc(F)cc32)c1C [sunitinib] + NC(=O)Nc1cc(-c2cccc(F)c2)sc1C(=O)N[C@H]1CCCNC1 [AZD7762] (first compound 0.4 µM, partner dose 0.02 µM)",93.8
15,"C[C@]1(O)C[C@@H](c2nc(-c3ccc4ccc(-c5ccccc5)nc4c3)c3c(N)nccn32)C1 + O=S(=O)(c1ccccc1)N(CC(F)(F)F)c1ccc(C(O)(C(F)(F)F)C(F)(F)F)cc1 [T0901317] (first compound 0.4 µM, partner dose 1.4 µM)",92.8
16,"CCN(CC)CCNC(=O)c1c(C)[nH]c(/C=C2\C(=O)Nc3ccc(F)cc32)c1C [sunitinib] + COc1cc(Nc2ncc(F)c(Nc3ccc4c(n3)NC(=O)C(C)(C)O4)n2)cc(OC)c1OC [Tamatinib] (first compound 0.4 µM, partner dose 0.4 µM)",92.6
17,"C[C@]1(O)C[C@@H](c2nc(-c3ccc4ccc(-c5ccccc5)nc4c3)c3c(N)nccn32)C1 + COc1cc2c(Oc3ccc4[nH]c(C)cc4c3F)ncnc2cc1OCCCN1CCCC1 [cediranib] (first compound 0.4 µM, partner dose 0.4 µM)",88.6
18,"C[C@]1(O)C[C@@H](c2nc(-c3ccc4ccc(-c5ccccc5)nc4c3)c3c(N)nccn32)C1 + COc1cc2ncnc(Nc3ccc(Oc4ccccc4)cc3)c2cc1OC [SrcI1] (first compound 0.4 µM, partner dose 2 µM)",96.1
19,"CCN(CC)CCNC(=O)c1c(C)[nH]c(/C=C2\C(=O)Nc3ccc(F)cc32)c1C [sunitinib] + OCCn1cc(-c2cnc3nnn(Cc4ccc5ncccc5c4)c3n2)cn1 [PF04217903] (first compound 0.4 µM, partner dose 1 µM)",87.5
20,"Cn1cnc2c(F)c(Nc3ccc(Br)cc3Cl)c(C(=O)NOCCO)cc21 [selumetinib] + N#Cc1c(O)c2c(-c3ccc(-c4ccccc4O)cc3)csc2[nH]c1=O [A769662] (first compound 0.015 µM, partner dose 2 µM)",107
21,"Cn1cnc2c(F)c(Nc3ccc(Br)cc3Cl)c(C(=O)NOCCO)cc21 [selumetinib] + c1cc(-c2cnn3cc(-c4ccc(OCCN5CCCCC5)cc4)cnc23)ccn1 [Dorsomorphin] (first compound 0.015 µM, partner dose 0.4 µM)",104
22,"CCN(CC)CCNC(=O)c1c(C)[nH]c(/C=C2\C(=O)Nc3ccc(F)cc32)c1C [sunitinib] + CC(C)CCN1c2nc(Nc3cc(F)c(O)c(F)c3)ncc2N(C)C(=O)C1C [BID1870] (first compound 0.4 µM, partner dose 0.2 µM)",73.1
23,"COc1cc([C@@H]2c3cc4c(cc3[C@@H](O[C@@H]3O[C@@H]5CO[C@@H](C)O[C@H]5[C@H](O)[C@H]3O)[C@H]3COC(=O)[C@H]23)OCO4)cc(OC)c1O [etoposide] + COc1ccc(COc2ccc(Cc3cnc(N)nc3N)cc2OC)cc1 [GW2580] (first compound 0.02 µM, partner dose 1 µM)",80.7
24,"Cn1cnc2c(F)c(Nc3ccc(Br)cc3Cl)c(C(=O)NOCCO)cc21 [selumetinib] + NCC(=O)Nc1ccc(-n2nc(C(F)(F)F)cc2-c2ccc3c(ccc4ccccc43)c2)cc1 [OSU03012] (first compound 0.015 µM, partner dose 1 µM)",68.9
25,"COc1cc([C@@H]2c3cc4c(cc3[C@@H](O[C@@H]3O[C@@H]5CO[C@@H](C)O[C@H]5[C@H](O)[C@H]3O)[C@H]3COC(=O)[C@H]23)OCO4)cc(OC)c1O [etoposide] + O=C(CCCCCCC(=O)Nc1ccccc1)NO [vorinostat] (first compound 0.02 µM, partner dose 0.08 µM)",83.1
26,"C[C@]1(O)C[C@@H](c2nc(-c3ccc4ccc(-c5ccccc5)nc4c3)c3c(N)nccn32)C1 + CO[C@@H]1[C@H](N(C)C(=O)c2ccccc2)C[C@H]2O[C@]1(C)n1c3ccccc3c3c4c(c5c6ccccc6n2c5c31)C(=O)NC4 [Midostaurin] (first compound 0.4 µM, partner dose 0.08 µM)",75
27,"CCN(CC)CCNC(=O)c1c(C)[nH]c(/C=C2\C(=O)Nc3ccc(F)cc32)c1C [sunitinib] + C[C@@H]1CCN(C(=O)CC#N)C[C@@H]1N(C)c1ncnc2[nH]ccc12 [CP690550] (first compound 0.4 µM, partner dose 1 µM)",106
28,"Cn1cnc2c(F)c(Nc3ccc(Br)cc3Cl)c(C(=O)NOCCO)cc21 [selumetinib] + CCc1ccc(CCOc2ccc(CC3SC(=O)NC3=O)cc2)nc1 [pioglitazone] (first compound 0.015 µM, partner dose 2 µM)",81.4
29,"C[C@]1(O)C[C@@H](c2nc(-c3ccc4ccc(-c5ccccc5)nc4c3)c3c(N)nccn32)C1 + CCN(CC)CCCCNc1ncc2cc(-c3cc(OC)cc(OC)c3)c(NC(=O)NC(C)(C)C)nc2n1 [PD173074] (first compound 0.4 µM, partner dose 0.1 µM)",78.9
